# In all, about 33,000 sequences were measured (“E-score (-0.5 to 0.5)”: median about -0.013, highest 2% from about 0.3 on). This is one part of the list.
# Target: T1, Msn1 (UniProt P22148)
# T1 sequence: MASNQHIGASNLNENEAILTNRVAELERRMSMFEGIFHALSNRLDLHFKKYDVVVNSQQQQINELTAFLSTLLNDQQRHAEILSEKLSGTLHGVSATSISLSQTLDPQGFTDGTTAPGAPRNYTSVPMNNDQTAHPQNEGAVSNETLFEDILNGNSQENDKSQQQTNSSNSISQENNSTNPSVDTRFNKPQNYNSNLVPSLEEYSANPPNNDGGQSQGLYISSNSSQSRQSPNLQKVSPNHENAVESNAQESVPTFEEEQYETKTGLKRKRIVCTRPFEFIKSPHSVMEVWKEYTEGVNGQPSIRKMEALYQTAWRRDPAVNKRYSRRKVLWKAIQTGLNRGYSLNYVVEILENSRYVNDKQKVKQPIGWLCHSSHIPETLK
# Assay: PBM E-score (8-mer binding enrichment) (E-score (-0.5 to 0.5)); higher = stronger / more preferred TF binding; most listed sequences are background and not binding sites
# Conditions: protein concentration: 200 nM; construct: GST-full length
# Method in brief: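 E-scores (a modified Wilcoxon-Mann-Whitney statistic) were assigned by the Universal PBM Analysis Suite to every ungapped eight-base word pooled with its reverse complement. The input came from universal all-10-mer Agilent arrays made double-stranded by primer extension and probed with GST-tagged yeast transcription factors at about 100-200 nM. Fluorescent anti-GST detected bound protein, and masliner normalised the scans.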
row,Sequence,PBM E-score
1,TCCCTGAA,0.011
2,CTAGTCTA,-0.0874
3,AATCTTTA,0.117
4,CCCGGTAA,0.00759
5,ACTACTAA,0.075
6,AAAAGCTC,0.0539
7,CGTGTAAA,-0.00711
8,CGCCACGC,-0.0875
9,CCTTGGTC,-0.194
10,CTATAGAG,-0.206
11,AACCAGGA,0.126
12,TAGCAAAA,0.124
13,CCTAGACC,-0.00875
14,CTACCATA,0.0846
15,GTGACCAC,-0.155
16,CCCCCCAA,-0.17
17,GAGGAACA,0.0319
18,CCCGTGGA,-0.152
19,CTGTGACC,-0.115
20,GCGCCTAC,-0.00952
21,CCGCCGTA,-0.0756
22,ACACGCAT,0.133

row,Sequence,PBM E-score
1,CACCAAAC,0.0872
2,ATTACTTG,0.114
3,ATGCGCTG,-0.0966
4,GATCCTTA,-0.107
5,GGGTGGGA,-0.0376
6,AGAAGGCG,-0.252
7,CTGGATCC,0.0578
8,GAACTCTC,-0.0211
9,AATACGGT,-0.0751
10,CTATACAC,-0.263
11,CCTGCCAA,-0.125
12,CTACTTGC,0.0456
13,AGAGGACG,-0.0239
14,TATCTCCA,0.0995
15,AGTGCTAG,-0.0691
16,ACCCCGAA,0.11
17,AAGTCCTA,0.409
18,AAACAGGG,0.09
19,ACGCTTGC,-0.222
20,AAAGACGC,0.111
21,ACGATACA,-0.00049
22,GTGAACAA,-0.0336

row,Sequence,PBM E-score
1,AATCTGTC,0.235
2,ACTACCCC,-0.236
3,ATGCGTTC,0.173
4,AACTAGCT,-0.0195
5,GAACGGCC,-0.0295
6,ATCGGAGA,0.0493
7,AACGCTGA,-0.0479
8,TGTAAAAA,0.148
9,CAGGATGA,-0.0423
10,CAGCGGCG,0.0902
11,CCTATCAA,0.187
12,CGCAGGAA,-0.206
13,TACTTAAA,-0.0209
14,CCTAGAAA,0.096
15,AGCAAAAG,0.0423
16,CTCGATAC,0.0646
17,AAGTGTAT,0.0747
18,AGTGCACG,-0.0746
19,CGATTGCC,-0.0308
20,CGCCGCAA,-0.00202
21,ACTTGACT,0.0663
22,CGCTCCTA,-0.11

row,Sequence,PBM E-score
1,ATCGCGTC,0.0368
2,AGGTTTTA,-0.0592
3,CAATATGC,-0.00156
4,AGTTCCGG,0.089
5,AACTACAA,0.117
6,GCCTTACC,-0.239
7,AATGATGT,0.242
8,TGAGTCCA,0.0938
9,GAAGCCTC,-0.204
10,GGTGCGGA,-0.047
11,GCACCGTA,-0.0148
12,ATTCGGAA,0.167
13,ACGAACCT,-0.0925
14,CGCACAAA,0.0557
15,ATCCAGCG,0.00311
16,AGGGTACT,-0.34
17,CTAGTATA,0.0125
18,AGACTCAT,-0.111
19,TAGACATA,0.41
20,ACTCAGAG,-0.0625
